Our source for the binding values is paper PMC6765112, “Specificity of MYB interactions relies on motifs in ordered and disordered contexts” (Nucleic Acids Research, 2019).

Protein sequences, listed by entry. Tags and fused reporters are not part of them.
UniProt O49687: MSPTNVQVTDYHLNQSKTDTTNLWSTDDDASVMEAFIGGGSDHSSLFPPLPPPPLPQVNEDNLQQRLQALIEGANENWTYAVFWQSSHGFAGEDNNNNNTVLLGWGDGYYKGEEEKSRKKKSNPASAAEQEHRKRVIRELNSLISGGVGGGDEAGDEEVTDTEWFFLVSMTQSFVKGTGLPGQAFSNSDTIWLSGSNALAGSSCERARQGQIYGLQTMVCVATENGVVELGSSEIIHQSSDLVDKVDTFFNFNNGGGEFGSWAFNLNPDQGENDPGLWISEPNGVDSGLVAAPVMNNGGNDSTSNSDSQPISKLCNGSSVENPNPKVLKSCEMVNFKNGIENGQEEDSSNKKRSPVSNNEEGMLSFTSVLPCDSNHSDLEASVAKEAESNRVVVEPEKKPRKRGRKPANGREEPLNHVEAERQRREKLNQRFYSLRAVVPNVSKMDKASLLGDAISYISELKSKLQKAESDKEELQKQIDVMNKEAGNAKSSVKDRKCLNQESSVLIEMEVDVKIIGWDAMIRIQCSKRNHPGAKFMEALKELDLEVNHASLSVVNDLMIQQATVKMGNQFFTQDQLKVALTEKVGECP
UniProt Q9FIP9: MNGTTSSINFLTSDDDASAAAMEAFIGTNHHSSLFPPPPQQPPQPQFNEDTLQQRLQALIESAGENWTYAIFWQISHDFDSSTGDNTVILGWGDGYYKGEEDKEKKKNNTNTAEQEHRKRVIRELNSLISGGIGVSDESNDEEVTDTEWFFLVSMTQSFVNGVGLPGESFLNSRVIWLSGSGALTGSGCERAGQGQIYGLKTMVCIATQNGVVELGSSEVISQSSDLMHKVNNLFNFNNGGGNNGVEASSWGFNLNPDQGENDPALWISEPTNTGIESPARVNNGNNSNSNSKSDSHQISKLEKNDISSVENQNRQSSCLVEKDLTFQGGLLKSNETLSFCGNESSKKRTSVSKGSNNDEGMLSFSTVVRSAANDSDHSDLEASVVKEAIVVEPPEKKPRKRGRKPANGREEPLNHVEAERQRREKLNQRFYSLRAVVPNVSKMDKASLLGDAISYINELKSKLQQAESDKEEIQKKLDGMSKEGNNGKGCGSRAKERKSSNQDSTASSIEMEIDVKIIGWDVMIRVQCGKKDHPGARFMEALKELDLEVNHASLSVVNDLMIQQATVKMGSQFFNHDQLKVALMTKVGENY

Numbering of substitutions follows the chain as printed. In names and notes the source's numbering stands. These are yes or no findings as the source states them, for the method shown. In cells and extracts the contact can be indirect. Some entries that bind do so weakly or less than the wild type.

Experiment [1] addresses MYC4 (Arabidopsis thaliana) (UniProt O49687). Description: split-ubiquitin assay; chemically inducible dimerization split-ubiquitin system in yeast NMY51 TOR1-1 Δfpr1; bHLH as bait (pFKBP12), MYB as prey (pFRB); drop tests of three colonies on SD-AHLW, 2 days at 30°C; SD-AHLW+Rapa as positive control.
The target of experiment [2] is MYC3 (Arabidopsis thaliana) (UniProt Q9FIP9). Described as above.

B1: MYB29 non-MYB region (G120-I336) (domain or fragment, UniProt Q9FLR1 120-336)
chain: GIDPVTHKPLAYDSNPDEQSQSGSISPKSLPPSSSKNVPEITSSDETPKYDASLSSKKRCFKRSSSTSKLLNKVAARASSMGTILGASIEGTLISSTPLSSCLNDDFSETSQFQMEEFDPFYQSSEHIIDHMKEDISINNSEYDFSQFLEQFSNNEGEEADNTGGGYNQDLLMSDVSSTSVDEDEMMQNITGWSNYLLDHSDFNYDTSQDYDDKNFI
Take B1: in experiment [1], the binding entry was “binds”.

B2: MYB29 (G120-L222) WT (domain or fragment, UniProt Q9FLR1 120-222)
chain: GIDPVTHKPLAYDSNPDEQSQSGSISPKSLPPSSSKNVPEITSSDETPKYDASLSSKKRCFKRSSSTSKLLNKVAARASSMGTILGASIEGTLISSTPLSSCL
Turning to B2, the binding entry in experiment [2] and in experiment [1] was “binds” each time.

B3: MYB29 (G120-L222) L190I (domain or fragment, UniProt Q9FLR1 120-222)
chain: B2 chain with L71I
For B3, the binding entry in experiment [2] and in experiment [1] was “binds” each time.

B4: MYB29 (G120-L222) A195G (domain or fragment, UniProt Q9FLR1 120-222)
chain: B2 chain with A76G
As for B4, the binding result in experiment [2] and in experiment [1] was “binds” in each case.

B5: MYB29 (G120-L222) V193A (domain or fragment, UniProt Q9FLR1 120-222)
chain: B2 chain with V74A
In the case of B5, the binding result in experiment [2] and in experiment [1] was “binds” throughout.

B6: MYB29 (G120-L222) R196A (domain or fragment, UniProt Q9FLR1 120-222)
chain: B2 chain with R77A
As for B6, the binding entry in experiment [2] and in experiment [1] was “binds” throughout.

B7: MYB29 (G120-L222) A194G (domain or fragment, UniProt Q9FLR1 120-222)
chain: B2 chain with A75G
On to B7, for which the binding entry in experiment [2] and in experiment [1] was “binds” throughout.

B8: MYB29 (G120-L222) L190V (domain or fragment, UniProt Q9FLR1 120-222)
chain: B2 chain with L71V
Regarding B8, the binding result in experiment [2] and in experiment [1] was “binds” each time.

B9: MYB29 (G120-L222) K188A (domain or fragment, UniProt Q9FLR1 120-222)
chain: B2 chain with K69A
For the molecule B9, the binding entry in experiment [2] and in experiment [1] was “binds” in each case.

B10: MYB29 (G120-L222) L189A (domain or fragment, UniProt Q9FLR1 120-222)
chain: B2 chain with L70A
On to B10, for which the binding entry in experiment [2] and in experiment [1] was “binds” each time.

B11: MYB29 (G120-L222) K192A (domain or fragment, UniProt Q9FLR1 120-222)
chain: B2 chain with K73A
On to B11, for which the binding result in experiment [2] and in experiment [1] was “binds” throughout.

Regarding SKKRCFKRSSSTSKLLNKVAARASSMGTILGASIEGTLISSTPLSSCL (domain or fragment, UniProt Q9FLR1 175-222) [MYB29 (S175-L222)], the binding result in experiment [1] is “binds”.

B12: MYB51 (protein, UniProt O49782 1-352)
chain: MVRTPCCKAELGLKKGAWTPEEDQKLLSYLNRHGEGGWRTLPEKAGLKRCGKSCRLRWANYLRPDIKRGEFTEDEERSIISLHALHGNKWSAIARGLPGRTDNEIKNYWNTHIKKRLIKKGIDPVTHKGITSGTDKSENLPEKQNVNLTTSDHDLDNDKAKKNNKNFGLSSASFLNKVANRFGKRINQSVLSEIIGSGGPLASTSHTTNTTTTSVSVDSESVKSTSSSFAPTSNLLCHGTVATTPVSSNFDVDGNVNLTCSSSTFSDSSVNNPLMYCDNFVGNNNVDDEDTIGFSTFLNDEDFMMLEESCVENTAFMKELTRFLHEDENDVVDVTPVYERQDLFDEIDNYFG
For B12, the binding entry in experiment [2] and in experiment [1] was “binds” each time.

B13: MYB29 DBD (residues M1-H126) (domain or fragment, UniProt Q9FLR1 1-126)
chain: MSRKPCCVGEGLKKGAWTAEEDKKLISYIHEHGEGGWRDIPQKAGLKRCGKSCRLRWANYLKPDIKRGEFSYEEEQIIIMLHASRGNKWSVIARHLPKRTDNEIKNYWNTHLKKLLIDKGIDPVTH
B13: the binding entry in experiment [1] is listed as “no binding”.
